# Laboratory results taken from PubChem BioAssay AID488969 (Vanderbilt High Throughput Screening Facility, 2010).
# Whole data set: some 110,000 compounds, median “z-score” near -0.1, cut for the highest 2% near 2. The list shows a part of the results.
# Molecular target: Metabotropic glutamate receptor 8 (Rattus norvegicus) (UniProt P70579)
# Assay: rat mGluR8 modulators via GIRK flux, primary screen, cell-based, thallium flux, HTS (AID 488969)
# Conditions: HEK293 rat mGluR8, GIRK (G protein-gated inwardly rectifying potassium channel) thallium flux, FluoZin2; at 10 µM; stronger effect = higher value; submaximal glutamate (EC20) added with thallium
# Sequence of UniProt P70579 (P70579 whole entry, looked up): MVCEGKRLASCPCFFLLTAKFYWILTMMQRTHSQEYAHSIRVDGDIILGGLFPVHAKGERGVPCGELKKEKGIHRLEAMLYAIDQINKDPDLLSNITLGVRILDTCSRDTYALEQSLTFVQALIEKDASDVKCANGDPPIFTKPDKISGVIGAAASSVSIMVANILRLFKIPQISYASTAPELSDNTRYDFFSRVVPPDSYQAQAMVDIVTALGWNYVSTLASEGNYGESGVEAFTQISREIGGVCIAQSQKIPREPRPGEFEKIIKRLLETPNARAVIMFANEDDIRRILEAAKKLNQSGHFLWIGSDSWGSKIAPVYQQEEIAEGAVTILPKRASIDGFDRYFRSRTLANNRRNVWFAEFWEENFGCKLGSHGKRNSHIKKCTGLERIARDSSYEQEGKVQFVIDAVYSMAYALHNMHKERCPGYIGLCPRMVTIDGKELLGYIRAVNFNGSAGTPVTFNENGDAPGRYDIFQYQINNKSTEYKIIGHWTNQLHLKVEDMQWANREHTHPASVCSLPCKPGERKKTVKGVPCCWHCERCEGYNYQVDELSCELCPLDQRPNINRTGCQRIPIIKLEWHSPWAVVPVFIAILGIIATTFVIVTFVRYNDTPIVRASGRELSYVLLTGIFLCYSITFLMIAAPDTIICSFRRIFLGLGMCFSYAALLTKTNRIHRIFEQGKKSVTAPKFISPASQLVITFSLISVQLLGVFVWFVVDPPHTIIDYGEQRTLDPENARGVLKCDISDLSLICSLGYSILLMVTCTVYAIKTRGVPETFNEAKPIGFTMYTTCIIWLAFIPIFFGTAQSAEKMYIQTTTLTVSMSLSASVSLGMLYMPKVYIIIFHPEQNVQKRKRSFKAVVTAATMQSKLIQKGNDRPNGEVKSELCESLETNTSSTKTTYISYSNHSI
row,Structure (SMILES),z-score
1,Cn1nc(C(=O)Nc2nc3ccccc3[nH]2)c2ccccc2c1=O,-0.125
2,COc1ccc(CC(=O)NCc2nnc(SCCOc3ccccc3)n2C)cc1,-0.0997
3,CC1=C(OC(=O)c2ccc(Br)cc2)C(C)(C)C(c2ccccc2)OC1=O (stereo unspecified),-0.257
4,COC(=O)c1ccc(COc2ccccc2[N+](=O)[O-])o1,-0.593
5,CC(C)/C=N/NC(=O)c1cccc(N2CCCC2=O)c1,-0.283
6,Cc1cccc(C)c1N1C(=O)c2ccccc2C1=O,0.111
7,CCOC(=O)C(Cc1ccccc1)C(=O)Nc1ccc(NC(=O)C(Cc2ccccc2)C(=O)OCC)cc1 (stereo unspecified),-0.582
8,CCN(CC(=O)NCc1cccs1)S(=O)(=O)c1ccc(C(C)C)cc1,-0.237
9,CCCNC(=S)Nc1ccc(Cl)cc1Cl,-0.0325
10,Cc1cccc(S(=O)(=O)C(C#N)c2nc3ccccc3nc2N2CCCC2)c1 (stereo unspecified),-0.423
11,O=C(NCCO)/C(=C/c1ccc(Br)cc1)NC(=O)c1cccs1,-0.0838
12,Cc1ccc(-n2c(N)c(C(=O)N3CCOCC3)sc2=S)c(C)c1,0.158
13,Cc1ccc(NC(=O)CNC(=O)c2cccs2)cc1S(=O)(=O)Nc1ccc(Cl)cc1,-0.199
14,CCOC(=O)c1oc2cccc(OCC(O)CNC(C)C)c2c1C (stereo unspecified),0.393
15,CC(C)(C)OC(=O)C1C(=O)CC(C)(O)C(C(=O)OC(C)(C)C)C1c1cccnc1 (stereo unspecified),-0.277
16,CC(C)Cn1c(NCCN(C)C)nc2c1c(=O)[nH]c(=O)n2C,-0.0936
17,CC(=O)c1cc(C)ccc1OC(=O)CCN1C(=O)C2C3c4ccccc4C(c4ccccc43)C2C1=O (stereo unspecified),-0.138
18,CC(=O)C1=C(c2ccccc2)NC(=O)NC1c1ccccc1OCC(=O)Nc1ccccc1 (stereo unspecified),0.852
19,Cc1ccc(Cn2ccc(NC(=O)c3cc(-c4ccccc4)on3)n2)cc1,1.32
20,N#Cc1c(SCc2ccc(Cl)cc2)sc(C(=O)c2ccccc2)c1N,0.132
21,O=C(NCNC(=O)c1ccccc1)c1ccccc1,-0.373
22,Cc1cc(C(=O)CSc2nn3c(=O)c(C(C)(C)C)nnc3s2)c(C)n1-c1ccc(F)cc1,-0.983
23,O=C(COc1ccccc1)Nc1ncccn1,0.0512

row,Structure (SMILES),z-score
1,CCN(CC)c1ccc2oc(=O)c(C)nc2c1,-0.103
2,CCC1S/C(=N/C(=O)NC2CCCCC2)NC1=O (stereo unspecified),0.106
3,O=C(OCCOCCN=C1NS(=O)(=O)c2ccccc21)c1ccncc1,1.61
4,Cc1ccc(NC(=O)CSc2nnc(CN3CCOCC3)n2-c2ccccc2)cc1,0.149
5,Cc1ccc(OCC(=O)N2CCCCCC2)c(C)c1,-0.123
6,COCCNC(=O)c1ccccc1NS(=O)(=O)c1ccc(Br)s1,0.342
7,CC1CCCC(C)N1C(=O)Cn1c(=O)sc2ccccc21 (stereo unspecified),-0.56
8,CCCC1C(=O)N(c2ccccc2)C1c1ccccc1 (stereo unspecified),-0.305
9,O=C(COc1ccccc1CNCc1ccccc1)Nc1ccccc1,1.89
10,O=C(NNC(=O)c1ccc2c(c1)OCO2)NC12CC3CC(CC(C3)C1)C2,-0.287
11,CCOC(=O)c1c(Nc2ccccc2N)cc(C)nc1C,-0.345
12,Cc1ccc(S(=O)(=O)N(Cc2cc3cccc(C)c3[nH]c2=O)c2ccccc2)cc1,-0.159
13,Nc1nc2ccc(Oc3ccccc3)cc2s1,-0.274
14,Cc1ccnc(NC(=O)C2CCC(CNc3c(N4CCCC4)c(=O)c3=O)CC2)c1 (stereo unspecified),0.568
15,Cc1cnn(C(=S)NCc2ccco2)c1,-0.171
16,O=C1Nc2cc(C(=O)N3CCN(Cc4ccccc4)CC3)ccc2SC1N1CCOCC1 (stereo unspecified),0.0584
17,NS(=O)(=O)c1ccc(CCNC(=O)CN2CCN(c3ccccc3O)CC2)cc1,-0.159
18,Cc1ccc(NC(=O)CCC(=O)N/N=C/C=C/c2ccccc2)cc1,-0.0968
19,COc1cccc(NC(=O)c2cccnc2)c1,0.272
20,CCc1cc(=O)oc2c(CN3CCCC3)c(O)c(Cl)cc12,-0.478
21,CCOc1ccc(C/C(N)=N/n2cnnc2)cc1,0.411
22,N#C/C(=C\c1cn(Cc2cccc(F)c2)c2ccccc12)C(=O)NCc1ccco1,-0.44
23,C/C(=N\OC(=O)c1cccc(C)c1)c1sc(-c2ccccc2)nc1C,0.0633

row,Structure (SMILES),z-score
1,Cc1nc2nc(-c3ccccc3)[nH]n2c(=O)c1Cc1ccccc1,0.023
2,Cc1cc(Oc2ccc(C#N)cc2)nc(NCc2ccccc2)n1,0.216
3,O=C(/C=C/Nc1ccc(Br)cc1F)c1ccccc1,-0.219
4,CCOC(=O)N(CC)OC(=O)Nc1ccc(Cl)cc1,-0.314
5,COC(=O)c1cc(NC(=O)CN(c2cccc(OC)c2)S(=O)(=O)c2ccccc2)ccc1Cl,-0.407
6,COc1ccc(NC(=S)NCC(O)c2ccccc2)c(OC)c1 (stereo unspecified),-0.107
7,Cc1cc2ncn(-c3ncnc4sc(C)c(C)c34)c2cc1C,0.366
8,COc1ccc(NC(=S)N2CCN(C/C=C/c3ccccc3)CC2)cc1OC,-0.323
9,O=C1[C@@H]2[C@@H]3C[C@@H]([C@H]4ON=C(c5ccc(OCc6ccccc6)cc5)[C@@H]34)[C@@H]2C(=O)N1c1ccc2c(c1)OCO2,0.15
10,O=C(NCCN1C(=O)S/C(=C\c2ccc(Cl)cc2)C1=O)c1ccc(F)c(S(=O)(=O)N2CCOCC2)c1,-0.146
11,CCn1c(=O)c2c3c(sc2n2c(=S)[nH]nc12)CCC3,-0.309
12,CCN(CC)c1nc(SCCOC(=O)Nc2ccccc2)nc(N(CC)CC)n1,-0.38
13,Cc1ccc(S(=O)(=O)C2(C(=O)O)CCCC2)cc1C,0.0761
14,Cc1[nH]n(-c2ccccc2)c(=O)c1C=Nc1cccc2cccnc12,0.652
15,CCN(CC)S(=O)(=O)c1ccc(OC)c(NC(=O)c2cc([N+](=O)[O-])ccc2Cl)c1,-0.242
16,Cc1ccc(CNS(=O)(=O)/C=C/c2ccc3c(c2)OCO3)cc1,0.0141
17,CCSc1cc(C2C(C#N)=C(N)OC(C)=C2C(=O)OC)c(C)o1 (stereo unspecified),1.85
18,CCOC(=O)c1ccc(N2C(=O)C3CC=CCC3C2=O)cc1 (stereo unspecified),-0.136
19,O=C(NCc1ccco1)c1cnc2n(c1=O)CCS2,-0.0345
20,COC(=O)c1cccc(S(=O)(=O)N2CCC(c3nc4ccccc4o3)CC2)c1,0.148
21,CCN(CC)c1cc(CS(=O)c2ccccc2)nc(-c2ccccc2)n1 (stereo unspecified),-0.238
22,CC(C)(C)C1(C)OC(C(N)=O)C(C(N)=O)O1 (stereo unspecified),0.464
23,O=C1COc2ccc(C(=O)NCc3ccco3)cc2N1,0.913

row,Structure (SMILES),z-score
1,Cc1ccc(OCCNC(=O)c2cccc(Oc3ccc(C(F)(F)F)cc3[N+](=O)[O-])c2)cc1,-0.0955
2,CN(C(=O)CSc1nc2ccccc2n1CCc1ccccc1)C1CCS(=O)(=O)C1 (stereo unspecified),0.483
3,Cc1cnc(C(=O)OCC(=O)Nc2ccc(C)c(S(=O)(=O)N3CCCCC3)c2)cn1,-1
4,CC(C)CC(c1nnnn1CCc1ccccc1)N1CCN(C(=O)c2ccco2)CC1 (stereo unspecified),0.0414
5,O=c1[nH]c2cc3c(cc2cc1CN(Cc1nnnn1C1CCCC1)C1CCCC1)OCCO3,-0.184
6,CCOC(=O)Cc1csc(NC(=O)CC(C)(C)C)n1,-0.283
7,CC(C)(C)c1ccc(/C=C2\Oc3cc(OC(=O)N4CCOCC4)ccc3C2=O)cc1,-0.308
8,Cc1cccc(Nc2n[nH]c(C)c2[N+](=O)[O-])c1,0.073
9,Cc1[nH]nc(SCC(=O)N2CCC(C)CC2)c1[N+](=O)[O-],-0.0871
10,Cc1ccc2nsnc2c1S(=O)(=O)NCCc1c(C)[nH]c2ccc(F)cc12,-0.0892
11,COc1ccc(CCNC(=O)CSCc2ccc([N+](=O)[O-])cc2)cc1,-0.058
12,CC(=O)Cc1nsc(NC(=O)c2cc(-c3cccc(C(F)(F)F)c3)oc2C)n1,-0.566
13,CCc1cc2c(NCC3CCCO3)nc(C)nc2s1 (stereo unspecified),0.755
14,O=C(C1CCCO1)N1CCN(Cc2c(O)ccc3ccccc23)CC1 (stereo unspecified),-0.317
15,CSCCC(NC(=O)c1cc(CC(C)C)oc1C)C(=O)O (stereo unspecified),0.21
16,COC(=O)c1sccc1NC(=O)c1ccc(Br)o1,-0.0512
17,NC(=O)c1ccccc1N/C=C/C(=O)c1ccc(Cl)cc1Cl,-0.406
18,CC(=O)N1CCN(c2ccc(NCc3ccc(C)s3)cc2)CC1,0.169
19,Cc1cc(N(CCO)CCO)nc(-n2nc(C)cc2C)n1,0.0533
20,COc1ccc(CCNC(=O)COC(=O)c2ccc[nH]c2=O)cc1,0.0876
21,COc1ccc2c(c1)[nH]c(=O)c1sc3ccccc3c12,-0.212
22,Cc1cc(C)cc(OCc2ccc(C(=O)N3N=C(C(F)F)CC3(O)C(F)F)o2)c1 (stereo unspecified),-0.136
23,O=C(NCc1ccccc1)Oc1cccc(Cl)c1,-0.077

row,Structure (SMILES),z-score
1,Cc1nc2ccc(NC(=O)N3CCCCC3)cc2nc1C,-0.733
2,CC(C(=O)c1ccccc1)n1cnc2ccccc2c1=O (stereo unspecified),0.257
3,Cc1nn(C)c(C)c1NC(=O)CN1CCC(O)(c2ccc3c(c2)OCO3)CC1,0.225
4,Cc1cc(C(=O)NCCCN2CCN(c3cc(Cl)ccc3C)CC2)n(-c2ccccc2)n1,-0.0252
5,CC1(C)CC(C(=O)Nc2nccs2)CCO1 (stereo unspecified),0.392
6,Cc1cc(C)c(S(=O)(=O)n2cnc3ccccc32)c(C)c1,1.96
7,CC(=O)Nc1cc(C(=O)N2CCc3ccccc3C2)ccc1Sc1ccc(Cl)cc1,-0.633
8,Cn1c(=O)[nH]c(=O)c2c1nc(CN1CCOCC1)n2CCc1ccccc1,-0.224
9,CC(c1ccco1)N(C(=O)C12CC3CC(CC(C3)C1)C2)c1ccccn1 (stereo unspecified),-0.0361
10,NC(=O)C(Cc1ccccc1)NS(=O)(=O)c1ccc(N2CCCC2=O)cc1 (stereo unspecified),0.443
11,Cc1cc(C)n2c(SCc3c(C)noc3C)nnc2n1,-0.0364
12,COc1ccc2[nH]c(=O)c(CN(Cc3cccs3)C(=S)Nc3cccc(C)c3)cc2c1,0.267
13,CCN1C(=O)C(O)(CC(=O)c2cc(C)ccc2C)c2ccccc21 (stereo unspecified),0.918
14,O=C(NNC(=O)c1ccccc1Br)c1cccc(Cl)c1,1.39
15,COc1ccc(NC(=S)NCCc2ccc(Cl)cc2)c(OC)c1,0.319
16,COC(=O)C(C)(C)ONC(=O)Nc1ccccc1Br,0.15
17,COc1ccc2c(C)cc(SCC(=O)Nc3ncc(Cl)cc3Cl)nc2c1,-0.0654
18,COc1ccc(C(=O)NCc2cccnc2)cc1Br,-0.493
19,C=CCNc1nc2c(c(=O)[nH]c(=O)n2C)n1Cc1cccc(C)c1,-0.137
